According to PubChem BioAssay AID1460 (National Center for Advancing Translational Sciences (NCATS), 2008):
The whole screen tested about 270,000 compounds, of which about 5,800 (2.1%) were called active. The shares of active, inactive and inconclusive entries below differ from those in the screen. Calls follow the shape of the dose curve; as a rule, active = well fitted inhibition curve with a large enough effect; inconclusive = small, poorly fitted or top-dose-only effect; inactive = flat fitted curve, though single readings scatter. Where the call is inconclusive, the potency comes from a doubtful curve fit.

Target: Microtubule-associated protein tau (Homo sapiens) (UniProt P10636)
UniProt P10636, sequence (P10636 whole entry, looked up): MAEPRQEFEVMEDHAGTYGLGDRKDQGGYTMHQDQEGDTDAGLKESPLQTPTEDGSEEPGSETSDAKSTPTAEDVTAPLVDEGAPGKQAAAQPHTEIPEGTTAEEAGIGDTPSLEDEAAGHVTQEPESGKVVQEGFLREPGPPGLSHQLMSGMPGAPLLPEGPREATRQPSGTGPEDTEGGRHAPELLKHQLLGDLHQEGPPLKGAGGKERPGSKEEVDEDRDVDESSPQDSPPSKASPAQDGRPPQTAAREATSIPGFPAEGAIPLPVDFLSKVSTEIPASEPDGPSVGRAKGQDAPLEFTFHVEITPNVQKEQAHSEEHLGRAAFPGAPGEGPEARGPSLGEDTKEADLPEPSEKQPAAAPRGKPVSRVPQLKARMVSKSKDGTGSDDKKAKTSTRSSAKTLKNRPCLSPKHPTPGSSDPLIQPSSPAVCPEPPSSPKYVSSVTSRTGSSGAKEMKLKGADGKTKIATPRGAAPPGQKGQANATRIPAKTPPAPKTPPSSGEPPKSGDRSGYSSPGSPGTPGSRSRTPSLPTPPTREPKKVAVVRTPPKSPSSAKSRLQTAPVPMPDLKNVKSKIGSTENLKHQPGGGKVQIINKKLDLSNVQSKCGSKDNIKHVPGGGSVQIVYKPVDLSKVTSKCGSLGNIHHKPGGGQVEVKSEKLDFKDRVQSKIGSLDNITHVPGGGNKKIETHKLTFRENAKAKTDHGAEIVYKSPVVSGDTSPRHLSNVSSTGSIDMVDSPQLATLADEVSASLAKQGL
Experiment: qHTS for Inhibitors of Tau Fibril Formation, Thioflavin T Binding; also: nearly all actives have a fitted effect of over 55% in size
Conditions: recombinant tau K18 P301L (four-repeat tau fragment), heparin-induced fibrillization, ThT fluorescence; series mostly up to 57.4 µM
Method in brief: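 Heparin-induced fibrillization of the P301L-mutant K18 repeat-domain fragment of human tau was followed by ThT binding in quantitative high-throughput format.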
Potency is read from the fitted curve at half-maximal effect; tags tell the direction and shape of the fitted curve.

Compound	Potency
Cc1cc2nc(/C=C/c3nc4cc(C)c(C)cc4[nH]3)[nH]c2cc1C	inconclusive: 0.794 µM [inhibitor, full curve]
COC(=O)c1c(NC(=O)CN2C(=O)NC3(CCc4ccccc4C3)C2=O)sc2c1CCCCC2 (stereo not drawn)	inconclusive: 0.178 µM [inhibitor, full curve, poor fit]
Nc1nc2n(n1)C(c1cccs1)CC(c1ccc(F)cc1)N2 (stereo not drawn)	inactive
NNC(=O)c1ccc2ccccc2n1	inconclusive: 25.1 µM [inhibitor, single point]
N#C/C(=C/c1ccc(N2CCOCC2)o1)c1nc2ccccc2[nH]1	active: 7.94 µM
COc1ccc(-c2nc(C#N)c(NCCc3ccccc3)o2)cc1	inconclusive: 1.58 µM [inhibitor, full curve]
Cc1ccc(NC(=O)COC(=O)c2ccc3c(c2)NC(=O)C2CCCN32)cc1C (stereo not drawn)	inconclusive: 7.94 µM [inhibitor, partial curve]
COc1ccc(/C=C/C(=O)C2CC2)cc1COc1c(C)cccc1C	inconclusive: 39.8 µM [inhibitor, single point]
O=C1Nc2ccccc2S/C1=C/Nc1cccc(Cl)c1	inconclusive: 2.51 µM [inhibitor, full curve]
CC1=NN(c2ccccc2)C(=O)/C1=C\c1cc(C)n(-c2cccnc2)c1C	inconclusive: 3.16 µM [inhibitor, full curve]
Cc1ccc(-n2ncc3c(=O)n(CC(=O)N4CCCc5ccccc54)cnc32)cc1C	inconclusive: 17.8 µM [inhibitor, single point]
Cc1cn2c(=O)cc(COc3ccccc3NC(=O)c3ccccc3C)nc2s1	inconclusive: 2.82 µM [inhibitor, partial curve]
Cc1ccc(-c2csc(/C(C#N)=C/c3ccccc3Cl)n2)cc1	inconclusive: 2 µM [inhibitor, full curve]
COc1ccc2oc(=O)c(C(=O)NCCc3c(C)[nH]c4ccc(Br)cc34)cc2c1	inconclusive: 8.91 µM [inhibitor, partial curve]
Cc1cc(C(=O)c2ccc(C(C)(C)C)cc2)c(NC(=O)CCl)s1	inconclusive: 8.91 µM [inhibitor, partial curve]
Cc1cc(C)c(S(=O)(=O)c2ccccc2)c(OC(=O)c2c(Cl)cc(Cl)cc2Cl)n1	inconclusive: 39.8 µM [inhibitor, partial curve]
CCOc1ccc(/C(O)=C2\C(=O)C(=O)N(c3ccc(OC)cc3)C2c2ccccc2[N+](=O)[O-])cc1 (stereo not drawn)	active: 5.01 µM
COc1ccc(OC)c(N)c1	inconclusive: 31.6 µM [inhibitor, single point]
CCOc1ccc(-c2nnc3n2N=C(c2ccc(OC)cc2)CS3)cc1	inactive
COc1ccc(-c2cnnc(N/N=C/c3ccc(O)cc3)n2)cc1	inconclusive: 2 µM [inhibitor, full curve]
O=[N+]([O-])c1ccccc1CSc1nc2ccccc2o1	inconclusive: 20 µM [inhibitor, single point]
CCCCCCN1C=C/C(=C\C=C(C#N)C#N)c2ccccc21	inconclusive: 1.12 µM [inhibitor, full curve]

Compound	Potency
CCc1ccc(-n2c(-c3ccccc3)c(C)n3c4c(=O)n(C)c(=O)n(C)c4nc23)cc1	inactive
Cc1cccc(N2CCN(Cc3nc(-c4ccc(F)cc4F)oc3C)CC2)n1	inconclusive: 28.2 µM [inhibitor, partial curve, poor fit]
Cc1ccc2cccc(NC(=O)c3ccc(-c4ccc(Br)cc4)o3)c2n1	inactive
Cc1cn(CCC(=O)Nc2ccc(N3CCOCC3)cc2)c2ccccc12	inconclusive: 2.51 µM [inhibitor, full curve]
Cc1cc(=O)c2cc(C(=O)Nc3ccccc3)ccc2[nH]1	inconclusive: 20 µM [inhibitor, partial curve]
Cc1cc(Cl)ccc1OCC(=O)N/N=C1\CCCc2ccccc21	inconclusive: 6.31 µM [inhibitor, partial curve]
Cc1ccccc1-c1nc(-n2ccnc2)c2ccccc2n1	inconclusive: 20 µM [inhibitor, single point]
CC(C)(C)C(=O)CSc1nc2ccsc2c(=O)n1Cc1ccccc1F	inactive
NC(=O)N/N=C/c1coc2ccc(O)cc2c1=O	inconclusive: 25.1 µM [inhibitor, partial curve]
CN1/C(=C\C(=O)c2ccccc2Cl)c2ccccc2CC1(C)C	inactive
CC1CCN(c2cc(N3CCOCC3)c([N+](=O)[O-])cc2F)CC1	inconclusive: 11.2 µM [inhibitor, partial curve]
CCCS(=O)(=O)N1CCN(CC2CC=CCC2)CC1 (stereo not drawn)	inactive
CN1CCN(CCCNC(=O)c2cnn(-c3ccccc3)c2-n2cccc2)CC1	inconclusive: 3.16 µM [inhibitor, single point]
Cc1ccc(C)c(S(=O)(=O)N/N=C/c2ccc(N(C)C)cc2)c1	inconclusive: 28.2 µM [inhibitor, single point]
CCOCCCNC(=O)NC(CCC(C)C)c1c(-n2cccc2)sc2c1CCN(C)C2 (stereo not drawn)	inactive
COc1ccc(N2CCN(C(=O)CCNS(=O)(=O)c3ccc4c(c3)CCN4C(=O)C3CC3)CC2)cc1	inconclusive: 15.8 µM [inhibitor, partial curve]
COc1ccc(CNC(=O)c2ccc(Cn3c(=O)c4cccn4c4cccnc43)cc2)cc1OC	inconclusive: 39.8 µM [inhibitor, single point]
O=C(O)CCCNc1cc(N2CCC3(CC2)OCCO3)c2noc3c2c1C(=O)c1ccccc1-3	active: 25.1 µM
CCN1CCN(C(=O)c2sc3nc(C)nc(N4CCC(C)CC4)c3c2C)CC1	inactive
CCOC(=O)N1CCN(c2cc(N3CCOCC3)c(F)cc2[N+](=O)[O-])CC1	inconclusive: 20 µM [inhibitor, single point]
O=C1/C(=C\c2cccnc2)SC(=S)N1C1CCS(=O)(=O)C1 (stereo not drawn)	inconclusive: 17.8 µM [inhibitor, partial curve]
